The other results are listed elsewhere or left out.
T1: UNK ZnF1-3 (human, UniProt Q9C0B0 31-174)
T1 sequence: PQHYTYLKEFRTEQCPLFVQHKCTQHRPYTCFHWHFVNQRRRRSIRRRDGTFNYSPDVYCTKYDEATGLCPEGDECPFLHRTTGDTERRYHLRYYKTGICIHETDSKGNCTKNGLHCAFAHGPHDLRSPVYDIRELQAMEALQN

B1: chr1:66459500:66459501:+_ENSMUSG00000015222_ENSMUST00000114013|mus_mus|motif|central (ssRNA)
RNA: GGGAGUUCUACAGUCCGACGAUCGAAGACAGGGGCAAAGGGUCGUGGUCCUUCUGAGACUCUCUCAUUCUUCAUAGUGUCGGAGGGAAGAGUGAAACUUCCACCAUGGAAGGGGCUUGGCAUGGGAGAGUCAAACUGCUUCCCCAACAGAGGAUUGAGCAUCA
B2: chr4:25749455:25749456:-_ENSG00000091490_ENST00000264868|hu_hu|hu_hu_hu_mus_False|1_28 (ssRNA)
RNA: GGGAGUUCUACAGUCCGACGAUCGCACUAUGACCUCUAGAAAAAUCCACAGGGGGAAAAAAUGUAAACCAAUGUACAAUGUUAUCGCCUUCCCUGUGUGUGGAGUGACAAACAAUUGGCUCCUUCUAGCUGCUGGACUGCUAGCAACAGAGGAUUGAGCAUCA
B3: chr2:172291668:172291669:+_ENSG00000115827_ENST00000375255|hu_mus|motif|central (ssRNA)
RNA: GGGAGUUCUACAGUCCGACGAUCAACACUGCUGACACAGCACCGGUAAUUGUCAAAAUAUAUUCUUCCUCUCUCAUAGGCGGUAGGUGACUUGGAAUGAGUUGUCCAAACAUUCUUAAAUUUAGUACUCUCCUGGCACACCAGCAACAGAGGAUUGAGCAUCA
B4: chr2:9570881:9570882:+_ENSG00000119203_ENST00000238112|hu_mus|hu_hu_hu_mus_False|48_48 (ssRNA)
RNA: GGGAGUUCUACAGUCCGACGAUCACUUGUCUUCUGAAGGAACCAGGGCAGGGCUCCACAGUGAUCCAAAUGGAAAUGACUGAUCAAUAGGAGAUCAAUCUCAGCUGGGUCGAUAAGGUCAAUGUAAGGAAGGGCAUCCAUUCCCAACAGAGGAUUGAGCAUCA
B5: chr1:220276048:220276049:+_ENSG00000067704_ENST00000302637|hu_hu|hu_hu_hu_mus_True|38_68 (ssRNA)
RNA: GGGAGUUCUACAGUCCGACGAUCGCAAAUUGCCUGGUUGGCGGGAAUUGUCCAAGGCUGGGUGGUCCAGACCAAAACGCUAACAGGGGAUGAGGCAUCUAUAAGAGACUCCAACUUCGGAGGAGGUCUCAGGAGGGGGAAUCUCAACAGAGGAUUGAGCAUCA
B6: chr2:32530670:32530671:+_ENSG00000119820_ENST00000437765|hu_hu|FALSE|FALSE (ssRNA)
RNA: GGGAGUUCUACAGUCCGACGAUCCCAAUUCCUUCAGCAAGAAUUCCCAGCCUACACACAAAUUUAACACCAUCUUUUUCUAUUCAUGUAUAACUUGGAUCACACACCAGUAUAUAACGACAAAAAAUAAAUGUAUAAUAAAAACAACAGAGGAUUGAGCAUCA
B7: chr2:47387409:47387410:-_ENSG00000143933_ENST00000272298|hu_hu|motif|central (ssRNA)
RNA: GGGAGUUCUACAGUCCGACGAUCAUACAACUUGGAAUGGAUUUUGAGGCAAAUUGUGCCAUAAGCAGAUUUUAAGUGGCGGAACAAAGUUUAAAAAGCAAGUAACAAUAAAAGAAAAUGUUUCUGGUACAGGACCAGCAGUACCAACAGAGGAUUGAGCAUCA
B8: chr1:59925254:59925255:+_ENSMUSG00000067336_ENSMUST00000087435|mus_hu|motif|central (ssRNA)
RNA: GGGAGUUCUACAGUCCGACGAUCAUCUUGUUCUGAACAUGGAUUGCUGUUGUUGUUAUUGGAAUUAGUUCGGCCACCUUCGGGUGGCCGUUCCCUCCUGUCCACAAGACGAUCCAGAACACCUUCAUCAUGGCCAGCUUGUUGCAACAGAGGAUUGAGCAUCA
B9: chr4:106720802:106720803:+_ENSMUSG00000061887_ENSMUST00000030367|mus_mus|FALSE|FALSE (ssRNA)
RNA: GGGAGUUCUACAGUCCGACGAUCAGUUUUGUCCUUCAUGUUUUACGGAAUAAAAGUUUGGCCUUUUUAUUGCAUGAAACUAAAAUUGGGGAAGGUGGGGGAGUGAAUGGGAGGGUGGAGGGAGCAGGAGAUGCCCUCCCCCAGCAACAGAGGAUUGAGCAUCA
B10: chr13:45008927:45008928:-_ENSG00000102804_ENST00000261489|hu_hu|FALSE|FALSE (ssRNA)
RNA: GGGAGUUCUACAGUCCGACGAUCAGGACUGGCCAGUGUCUUCAGCAGAUUGUUCUCCUGCUCCAGCUGGGAAUUUUUCUCUAUUAGUUCUUUGAUUUGCUCUUUGAGGACCUCCACUUCUUCUCUGACCGCAUACAUCAAAUGCAACAGAGGAUUGAGCAUCA
B11: chr6:40197388:40197389:+_ENSMUSG00000057716_ENSMUST00000061740|mus_mus|mus_mus_mus_hu_False|18_78 (ssRNA)
RNA: GGGAGUUCUACAGUCCGACGAUCGAGACACUGGGGUGGAUUUAUUCCACCUCUGUUUGCUAGCCUCCCACUAAGACUGUUAUUUUGGGAUUCAUGGCCUUGAAUAUCAAGAGGGAAGGGACGAGAAUGGAAAGAGUCAAGAGUCAACAGAGGAUUGAGCAUCA
B12: chrX:7396663:7396664:+_ENSMUSG00000031153_ENSMUST00000132456|mus_mus|FALSE|FALSE (ssRNA)
RNA: GGGAGUUCUACAGUCCGACGAUCGCAAGGGCAUACAUGGAUGGAUCAGUGGGCAGAGGGACAGAUGGCAGACUGAUGGGCUAACCUGGGAAGUUGAUUGGAGGGUAAAAGAGGUGAACACAAAAGGGCGGUAGAUGACUGGAACAACAGAGGAUUGAGCAUCA
B13: chr1:2330915:2330916:+_ENSG00000157916_ENST00000443438|hu_mus|FALSE|FALSE (ssRNA)
RNA: GGGAGUUCUACAGUCCGACGAUCAGGGCCGUCAUCUGAGUCUUCCAUCAAGGAAGGAUCCACUUUGGGAGAAAGGAACGCAAUGAAAAGGUUUAGGUGGUAAAUUCCCAAGGCGUAGGUCACAAUGUACCAACCUUGUAACAGCAACAGAGGAUUGAGCAUCA
B14: 108935682_108940753_566_CDS_ENSG00000138796_ENST00000309522|human|control|control (ssRNA)
RNA: GGGAGUUCUACAGUCCGACGAUCGGCAUUAGCUAUGCUUGUAAUCUGCAAGGAGGAAGUGUUGCUGGCAAAGAUUGUAUGUUCAGCAGCAAACUUGUCCAGCCUUUUGAAGAGCUCGUUUUUCACCUUCAGAUUCUCCACGAUCAACAGAGGAUUGAGCAUCA

Each binder was assayed against T1, UNK ZnF1-3 (assay: nsRBNS (natural sequence RNA bind-n-seq); RBNS binding buffer (assumed for nsRBNS): 25 mM Tris pH 7.5, 150 mM KCl, 3 mM MgCl2, 0.01% Triton X-100, 500 ug/ml BSA, 20 U/ml SUPERase-In, 4 C; UNK is unkempt and MSI1 is Musashi-1; names of the RNAs are library labels; protein concentration not given here; high values mean tight binding).
B1 was tested, and the binding signal was 0.887 enrichment R. B2 showed a binding signal of 0.989 enrichment R. Work on B3 yielded a binding signal of 1.49 enrichment R. B4 showed a binding signal of 1.11 enrichment R. In the case of B5, the binding signal is reported as 1.77 enrichment R. In the case of B6, the binding signal is reported as 2.78 enrichment R. For B7, the binding signal was 1.89 enrichment R. B8 gave a binding signal of 0.509 enrichment R. B9 was tested, and the binding signal was 1.11 enrichment R. In the case of B10, the binding signal is reported as 1.11 enrichment R. B11 showed a binding signal of 1.3 enrichment R. Binder B12 has a binding signal of 2.4 enrichment R. With B13 the binding signal was 1.14 enrichment R. B14 gave a binding signal of 0.728 enrichment R.
